Source: ChEMBL document CHEMBL1156829
In all, about 5,400 compounds were measured (“IFI”: median about 2, highest 2% from about 22 on). This is one part of the list.

test: NOVARTIS: Inhibition Frequency Index (IFI) - the number of HTS assays where a compound showed > 50% inhibition/induction, expressed as a percentage of the number of assays in which the compound was tested.; type: functional

Compound | IFI [%]
CN1/C(=C\C=C\C2=[N+](C)c3ccc4ccccc4c3C2(C)C)C(C)(C)c2ccccc21 | 23.1
CC[n+]1c(C=CC=C2N(C)c3ccccc3C2(C)C)sc2ccccc21 | 28.6
COc1ccc(N2CCN(C(CNC(=O)CC(C)C)c3ccco3)CC2)cc1 (stereo not drawn) | 0
CCCCCSc1scc(-c2ccc(O)c(O)c2)[n+]1C | 6.5
COc1ccc(OC)c(-c2ccc(O)c(CNCCCN(C)C)c2)c1 | 2.56
CC(C)CC(NC(=O)OC(C)(C)C)C(=O)NC(Cc1ccccc1)C(=O)OCc1ccccc1 (stereo not drawn) | 0
O=C(Nc1ccc(C2=NCCN2)cc1)Nc1cccc(C(=O)Nc2ccc(C3=NCCN3)cc2)c1 | 0.901
CCOC(=O)c1sc(NC(=O)CSc2nnc(CNC(=O)COc3ccc(Cl)cc3)n2C)c(C(=O)OCC)c1C | 1.19
COc1cccc(OC)c1C(=O)Oc1cccc2ccc(C)nc12 | 1.39
CCN(CC)CCCC(C)N(Cc1cccc(OCc2ccccc2)c1)C(=O)NCc1ccccc1 (stereo not drawn) | 2
CCC(C)OC(=O)C1=C(C)NC2=C(C(=O)CC(c3ccc(Cl)cc3)C2)C1c1ccc(Cl)cc1 (stereo not drawn) | 7.69
Fc1ccc(-c2c[n+](Cc3ccc(Cl)cc3)c3n2CCC3)cc1 | 9.76
CC1CN(C(=O)C(Cc2c[nH]c3ccccc23)NC(=O)C(c2ccccc2)c2ccccc2)CCN1C(=O)NCc1ccccc1 (stereo not drawn) | 0
O[C@@H](c1cc(C(F)(F)F)nc2c(C(F)(F)F)cccc12)[C@H]1CCCCN1 | 1.82
O=c1c2[nH]c3ccccc3c2ncn1Cc1ccc2c(c1)OCO2 | 3.08
Cc1ccc(Sc2cc(C(=O)NCc3ccco3)c3ccccc3n2)cc1 | 1.19
O=[N+]([O-])c1ccc(-c2csc(CO)n2)cc1 | 0.82
Cc1ccnc(Nc2nc(-c3ccc(Cl)cc3)cs2)c1 | 6.45
O=C(O)CC(c1ccc2c(c1)OCO2)N1CCS(=O)(=O)CC1 (stereo not drawn) | 0
CC(C)(C)c1ccc(C(=O)Nc2ccc(NC(=O)c3ccc(-c4cccc([N+](=O)[O-])c4)o3)cc2)cc1 | 0
O=C(N/C(=C/C=C\c1ccccc1)C(=O)N1CCOCC1)c1ccc(Br)cc1 | 0
CCOC(=O)CSC1=Nc2ccccc2C2=NC(Cc3ccccc3)C(=O)N12 (stereo not drawn) | 3.61
CCCCCCC(NC(=O)OCc1ccccc1)S(=O)(=O)c1ccc(C)cc1 (stereo not drawn) | 2.6
O=C(NCc1n[nH]c(=S)n1-c1ccc(Br)cc1)c1cccc2ccccc12 | 2.22
Cc1ccc(-c2cc3nc4c(c(O)n3n2)CCCC4)cc1 | 7.14

Compound | IFI [%]
COc1cc(Br)c(/C=C2\Sc3ccccc3C2=O)cc1OC | 0
CCC(C)OC(=O)C1=C(C)NC2=C(C(=O)CC(c3ccc(Cl)cc3)C2)C1c1ccccc1F (stereo not drawn) | 2.41
CCC(C)NC(=O)c1cc(NC(=O)c2cccc(Cl)c2)ccc1N1CCCCC1 (stereo not drawn) | 1.89
CCCCCn1c(SCc2ccc(C)cc2)nc2cc(C(=O)NCc3ccco3)ccc2c1=O | 2.38
COc1ccc(C2C(C(=O)O)c3ccccc3C(=O)N2c2ccc(C)cc2)cc1OC (stereo not drawn) | 0
Cc1cc(C)c2c(c1)-c1c(ssc1=S)C(C)(C)N2C(=O)COc1nc2ccccc2s1 | 0
COc1ccc(-c2c[n+](Cc3ccc(Cl)c(Cl)c3)c3n2CCC3)cc1 | 2.44
O=C(O)CSC(C(=O)Nc1ccc(Cl)cc1)c1ccccc1 (stereo not drawn) | 0.8
CCCC(=O)O[C@]1(C(=O)CCl)[C@@H](C)CC2C3CCC4=CC(=O)C=C[C@]4(C)[C@@]3(F)C(=O)C[C@@]21C (stereo partly drawn) | 3.88
Cc1ccccc1OCc1nnc(SCC(=O)Nc2ccc([N+](=O)[O-])cc2)n1C | 5.94
CCC(C(=O)NCc1ccc(OC)c(OC)c1)n1nc(C)c2c(C)n(-c3ccc(C)cc3)nc2c1=O (stereo not drawn) | 0
COc1ccc(-n2cnc3cc(NCc4nc5ccccc5n4C)ccc32)cc1 | 0
COc1cc2c(-c3cc(Br)ccc3O)nc3c(c(Cc4ccccc4)nn3-c3ccccc3)c2cc1OC | 0
CCN1/C(=C/C(=C/c2sc3ccccc3[n+]2CC)NC)Sc2ccccc21 | 7.14
CCCCS(=O)(=O)N(C)CCCNc1ccnc2cc(Cl)ccc12 | 3.7
COc1cccc2c(C)nc(N=C(N)N)nc12 | 4.62
CCC(C)(C)c1ccc(OCC(O)CNCc2ccccc2)c(C(C)(C)CC)c1 (stereo not drawn) | 4.54
COc1cccc(-c2ccc(O)c(CNC3CCCCCCC3)c2)n1 | 3.03
CC(C)N(CCNc1ncnc2c1[nH]c1ccc(Cl)cc12)C(C)C | 2.44
CCCCCN(C(=O)c1cccc([N+](=O)[O-])c1)C(CC)c1nc2ccccc2c(=O)n1-c1ccccc1OC (stereo not drawn) | 0.935
COc1ccc(C2CC(c3c(-c4ccccc4)c4cc(Cl)ccc4[nH]c3=O)=NO2)cc1 (stereo not drawn) | 0
CN(/C=C/C1=[N+](C)c2ccc(Cl)cc2C1(C)C)c1ccccc1 | 0
CCCc1cc2c(=O)c(-c3ccc4c(c3)OCO4)c(CC)oc2cc1OC(C)C | 4.82
C(#Cc1ccccc1)CN(Cc1ccccn1)Cc1ccccn1 | 0
COc1cc(NC(=O)Cc2ccccc2OC)cc(OC)c1 | 0

Compound | IFI [%]
CCCCCn1c(C)[n+](CCCC)c2cc(Cl)c(Cl)cc21 | 7.14
CN(C)c1ccc(/C=C2/SC(=Nc3ccccc3Cl)NC2=O)cc1 | 12.6
FC(F)(F)c1cccc(Nc2nc3nonc3nc2Nc2ccc(Cl)cc2)c1 | 22.7
CCCCNCCN1CCN(c2ccc(OC)cc2)C[C@@H]1c1ccccc1 | 2.44
COc1ccc(N(C)C(=O)CNC(=O)c2nn(-c3ccc(OC)cc3OC)c(=O)c3ccccc23)cc1 | 0
CN(CCCNc1ccnc2cc(Cl)ccc12)C(=O)c1ccc(Br)cc1 | 1.85
CCCCOc1ccc(C(=O)Oc2ccccc2-c2nc3cc(C)ccn3c2NC(C)(C)CC(C)(C)C)cc1 | 4.67
Cc1c(Cl)cccc1-n1c(C(C)N(CCc2ccccc2)C(=O)COc2ccccc2)nc2ccccc2c1=O (stereo not drawn) | 5.56
Cc1ccc(-c2c[n+](CC(=O)c3ccccc3Cl)c3n2CCC3)cc1 | 4.76
O=C(Nc1ccccc1)Nc1ccc(S(=O)(=O)Nc2ccc(Br)cc2)cc1 | 0
O=[N+]([O-])c1ccc(Cl)c(-c2ccc(C=NNc3nc4ccccc4[nH]3)o2)c1 | 2.48
CCCCN1Cc2ccc(C(N)=O)cc2N=C1C1CC1 | 2.44
CCCN1/C(=C/c2sc3ccccc3[n+]2CC)C=Cc2ccccc21 | 23.1
c1ccc(Nc2nc(-c3ccccn3)cs2)nc1 | 18.1
CCC12C(=O)C(CC)(C(c3ccccc3)=C1c1ccccc1)C1C(=O)N(c3cccc(C(F)(F)F)c3)C(=O)C12 (stereo not drawn) | 0
COc1ccc(C2CC(c3cccs3)=NN2C(=O)CSc2nnc(CNC(=O)c3cccs3)n2-c2cccc(C)c2)cc1 (stereo not drawn) | 3.57
Fc1ccc(CN2CCc3nc(N4CCCCC4)sc3C2)cc1F | 4.17
Cc1cc(C)nc(SCc2cc(=O)c(OC(=O)c3cccc([N+](=O)[O-])c3C)co2)n1 | 0
c1ccc(-c2csc(Nc3nc4cc5c(cc4s3)OCO5)n2)nc1 | 17.8
CC(C)NCC(O)Cn1c2ccc(Cl)cc2c2cc(Cl)ccc21 (stereo not drawn) | 4.25
O=C(Nc1ccc(-c2nc3ccccc3[nH]2)cc1)c1ccc(-c2ccc(Cl)cc2)o1 | 11.9
O=c1[nH]n(CC2COC(c3ccccc3)O2)c(=O)c2ccccc12 (stereo not drawn) | 1.16
O=C(CCn1c(=S)oc2ccccc21)N1CCN(c2ccccc2)CC1 | 4.41
O=C(C1CC=CCC1)N1CCCC(c2ncncc2-c2ccncc2)C1 (stereo not drawn) | 0
O=C(C[n+]1cc(-c2ccc(F)cc2)n2c1CCC2)Nc1ccc(Cl)cc1 | 2.7

Compound | IFI [%]
CCc1ccc(-n2c(C(CC)N(CCc3ccc(OC)c(OC)c3)C(=O)C(CC)c3ccccc3)nc3ccccc3c2=O)cc1 (stereo not drawn) | 2.88
C=CCOC(=O)C1=C(C)N=C2SCCC(=O)N2C1c1ccc(OC(=O)c2ccco2)cc1 (stereo not drawn) | 0
COc1ccc(C(=O)NC(c2ccccc2Cl)c2cc(Cl)c3cccnc3c2O)cc1 (stereo not drawn) | 6.35
CC(C)(C)CC(C)(C)Nc1c(-c2ccccc2OC(=O)c2ccc(Br)cc2)nc2ccccn12 | 2.83
Cn1c(SCC(=O)Nc2cccc(F)c2)nc2c(c1=O)SCC2 | 0
O=C(Nc1ccc(-c2nc3cc(NC(=O)c4cccs4)ccc3[nH]2)cc1)c1cccs1 | 8.33
CCC(=O)N1c2ccccc2NC2=C(C(=O)CC(C)(C)C2)C1c1ccc2c(c1)OCO2 (stereo not drawn) | 0
COc1ccc(/C=C2/SC(Nc3ccc(F)cc3)=NC2=O)c(OC)c1 | 0
CCOC(=O)c1nc2nc(C)cc(O)n2n1 | 3.49
COc1cccc(Cn2c3cc(C)sc3c3cnn(C)c(=O)c32)c1 | 0
CCOC(=O)C(=O)N1c2ccccc2-c2c(ssc2=S)C1(C)C | 0
CC1CCN(C(=O)C(C)N(c2ccccc2)S(C)(=O)=O)CC1 (stereo not drawn) | 0
O=C(Nc1cc(C(F)(F)F)ccc1N1CCOCC1)C(Cl)(Cl)Cl | 0
Cc1ccc(Nc2nc3c(N)nnc(N)c3nc2Nc2ccc(C)cc2)cc1 | 2.98
CCc1cc(=O)n(C)c(SC(C)C(=O)Nc2ccc(F)cc2)n1 (stereo not drawn) | 3.16
CN(C)c1cc[n+](CC(=O)Nc2ccc(Cl)cc2)cc1 | 6.42
CCCCOc1ccc(/C=C/C(=O)NCc2ccco2)cc1 | 0
C[n+]1c(C=CNc2ccccc2)n(-c2ccccc2)c2ccc(Cl)cc21 | 12.5
CC(=Cc1sc2ccc3occc3c2[n+]1CCO)C=C1Sc2ccc3ccoc3c2N1CCO.CCC(=Cc1sc2ccc3ccccc3c2[n+]1C)C=C1Sc2ccc3ccccc3c2N1C | 11.1
Cn1c(-c2ccc([N+](=O)[O-])cc2)[n+](C)c2ccccc21 | 1.3
COc1ccc(/C=C/C(=O)NC(=O)c2ccccc2O)cc1 | 8.33
CCCC(=O)Oc1ccccc1-c1nc2ccccn2c1NC(C)(C)CC(C)(C)C | 3.67
O=[N+]([O-])c1ccc(-n2ncc(-c3nc(-c4ccc(Cl)cc4)no3)c2C(F)(F)F)cc1 | 0.862
